# According to the RNAGym collection of RNA variant scans (doi:10.7554/elife.90254):
# The source gives no read counts; variants with many changes may rest on few reads.
# B1: LINE1-full (parent)
# chain: UACGUAGGUGGUUUUCCCCUGAUAGUGCUAAGGGGGCCUGGAAGUUUGGACUGGGCAGAGCUCAACACAGCGUGGCAAAGUGGCUGUGGCUAGACUGCCUCUCUGGAUUCCUCGUCACUCAGCAGGGCAUCUCUGAGAGAAAUGCC
# Variants of: B1
# Assay: self-cleavage, relative activity (ratio to wild type); higher = more cleavage; in vitro, sequencing; the parent is a self-cleaving ribozyme
row,Variant,self-cleavage
1,U23C A30U A69U,0
2,A22G G34A U81C,0.96
3,U23C U29C G48A U143A,0.8
4,U23C A24G U45A A79G,0
5,A22G U96C A121U,0.25
6,U23C A31G A42U A142C,1.19
7,U23A U39C G127A A141G,0.73
8,U23A G60U G82A U134C,0.02
9,U23C U96C U134C,0.1
10,A24G A59G U73C,0.28
11,A22U G33U A129G A142G,1.35
12,A22G U39C A42U U87A,0.06
13,U23C A64G U109C U119C,0.32
14,U23C G34A G40A A64G,0.2
15,U23C A57U G58A U62C U134C,0.04
16,A24G A43G C84G C131G A142G,0.5
17,U23A U87A G89C G137A A140G,0.06
18,U23C A31U A129G,0.69
19,A22G U62A U100C U143C,0.06
20,A22G G75A U91A,0.41
21,U23A A94U U102A U109C A124G A142G,0.53
22,A22G G41A G54A,0.54
23,U23C A24G A142G,0.55
24,A24G A30U A129G A141U,0.92

row,Variant,self-cleavage
1,U23A G36A A43G G137U,0.44
2,A22G U62C A136U,0.14
3,A22U U23A A43G A67G C90A,0.1
4,A22U U87A A136G,0.13
5,A22G C61U A94G C145U,0
6,U23C A24G U85A U130A A138G,0.5
7,U23C U96A A117C,0.03
8,A22U A31G A121U,1.5
9,A22G U45C A78G,1.19
10,U23A U39C A42G A59U A64G U130A,0.37
11,A22G U87A A107G G122A A138G,0
12,A22G U39C A43G C145G,2.68
13,U23A U46A G86U A94G A124U,0.08
14,U23C U62A A138U,0.09
15,U23C G36A A77G U134A,2.08
16,A24G A57U A78G U108A,0.28
17,A22G U62C C68U,0.04
18,U23C C56U A64U A67G U115C,0.07
19,A22U U29C A78G,0.78
20,U23C U115C A129G,1.84
21,A22G U109C U119G A138U,1.15
22,A22U A78G U85C A124U,0.06
23,A22U U45C A69G U132A A142G,0.84
24,U23C U47C A69G A78G,1.02

row,Variant,self-cleavage
1,A22U C103A U130C A142G,0.8
2,A22U A59U A65G A138G,0.07
3,U23C A67G U112A A140G,0.72
4,U23C G33A G72A A121C A142G,1.35
5,U23C A43G A79G G127U A142G,0.84
6,A22G U46A A77U,1.32
7,U23A A24G A50G G86C,0.19
8,A22G U46C A124U U134G,1.48
9,U23A U102A G135A,1.54
10,U23C U45A G48A A77G U85C,0.33
11,U23C U73C U96C U104A U143A,0
12,U23G A24G U47C C116U,1.33
13,A24G A43G G105U,1.8
14,A22G U81C U143A,0.95
15,A22U A78U U85C U115C A121G,0.42
16,A22U U85C U143C,0.45
17,A22G U96A A121U,0.23
18,U23A U73A C84U,0.28
19,U23C A65G A94U U112A A142C,0.08
20,A22U U39A A67G,0.51
21,U23C A43G A57G A65G,0
22,A24G A65G A140G,0.09
23,U23C A42U U112C,0.58
24,A22G G53A C123U,0.98

row,Variant,self-cleavage
1,A24G A43G A65G G88A U143C,0.23
2,A24G A57G C71A G135A,0.13
3,A22U U39C A78G,0.95
4,A22U A77G A136G,0.57
5,U23C U29C A64U A138U,0.67
6,A22G U52C U104C,0
7,A24G A65U U102A U119C,0.29
8,U23A A77G G83U U85C U112C,0.06
9,U23C U26A U62C U115C A124U,0
10,A22G G60A A92G,0.14
11,A22G U39C U81G A142G U143C,1.1
12,A22U A79G U102C A124G,1.53
13,A22U C61U A79G,0
14,U23C A69U U73A A136G,0.1
15,A22U A42G U108C,1.26
16,U23C A64C U119C,0
17,U23A U47C U130A,1.79
18,U23C A30G U39C A64G G97A,0.26
19,U23C G49A U52A,1.17
20,U23C A121G A140G,0.63
21,A22G U62C A64G U108C,0
22,A22G U108C A121G,1.15
23,A22G U115C A129G,0.88
24,U23C A92G A117U,0.2

row,Variant,self-cleavage
1,A22G G33A A129U,0.89
2,A22U A107U U143A,1.36
3,U23C U85C A140G A142G,0.09
4,U23C G86A A124G A136G,0
5,U23G A31G U85C A94G C113A A142G,0.74
6,U23C A117G A124G,1.15
7,U23C A57U U96C,0
8,A22G U132C A142G,1.37
9,U23C U104C C110U,1.66
10,A22U U73C U130A A142G,1.66
11,A22G U87A U96C,0.18
12,A22U U91C A129G,0.84
13,A22G U46C A124G,1.02
14,A22U A59U A117U A129G,0.92
15,A22G U81C G97A A117G A136G,0.37
16,A22G G80A U109A U130C,1.97
17,U23C U62A G75U U112C,0.02
18,U23C U26C U47C A59G,0
19,U23C G54A U100A U143C,0.22
20,A22U A69G A78U,1.41
21,A24G A64U A79G U108C,0.77
22,A22G C131U U143C,1.25
23,A24C U52C A64G U143C,0.71
24,A24G A69G U87C A138G,0

row,Variant,self-cleavage
1,U23C A42G G106A,1.67
2,U23G A30G U47A A138U,0.9
3,A22U A42G A77U U102C,2.16
4,A22G U81A G83A,1.47
5,A22G U47A U104C,0.72
6,U23C A94U U109C,0.47
7,A22G C28U G48C A57G G72A U85A U130C,0
8,A22G G32A A121G,1.16
9,A22U U46C A59U,0.61
10,A22U U47C U100C,0
11,A22G U26A A107G A117U A138U,1.77
12,U23C U62C G86U,0
13,A22G U23G A24U G40A A67U,0
14,A22G U45A U109C,1.32
15,U23C A43G U45C G80A,2.26
16,A22G U119C U130C,0.92
17,U23C A59G A129G,0.23
18,A24G A31G A42G A121U A124G,1.31
19,A22G C28A U52C C95A,0.21
20,A22U A64G U100A,0.23
21,A22U A64C G86A,0.06
22,A22U G72U U119C G137U,1.22
23,A22U A50G A69G,0
24,U23C A64G A107G A140G,0

row,Variant,self-cleavage
1,A24G A42U A57G A138G,1.11
2,A22G C37U U45C,1.06
3,U23C U29C U81G U100C G122A,2.22
4,A22G C38U U46C A107U A136G,0.78
5,A22G G36A A78G,0.72
6,A22U U45A A121G U132G,0.97
7,U23C U46C G74A A142G,1.62
8,U23C C38U U73A,0.85
9,U23C A59G U109C A138G,0
10,A24G A43G U130A,1.65
11,A22G U132C G144A,1.91
12,A24C U46A U47C A59G A142G,0
13,A22G U62C A78U,0.11
14,U23C U108C U130C,1.34
15,A22U U29A A43G U62C G125A,0.05
16,A22U C99A U100C,0.55
17,A24G A30G U39C U112C,0
18,U23C A77G G93A,0.05
19,A22U A30U G106U,0.41
20,A22G G74A U104C,1.28
21,U23C A64U U108C,0.97
22,A22G U46A A94G,0.37
23,U23C G105U U134A,1.73
